# Source: PubChem BioAssay AID1159614 (National Center for Advancing Translational Sciences (NCATS), 2016)
# Screen size: about 45,000 compounds; about 65 (0.1%) were called active. Calls come from the whole dose curve; as a rule, active = well fitted activation curve with a large enough effect; inconclusive = small, poorly fitted or top-dose-only effect; inactive = no such curve, though single readings can be large or run the other way. The list shows a part of the results.
# Molecular target: Galactocerebrosidase (Homo sapiens) (UniProt P54803)
# Assay: A Novel Cell-Based Assay to Identify Small Molecules for B -Galactocerebrosidase; note: 0% is about no effect; nearly all actives have a fitted effect of over 65% in size
# Settings: 145M-Twi-hGALC-G270D cells (Twitcher mouse brain line with human GALC G270D), HMU-beta-Gal fluorescence, 48 h; series mostly up to 57.5 µM; activation: at the top concentration
# In short: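 Mutant human GALC (G270D), stably expressed in a Twitcher mouse brain cell line lacking endogenous GALC, is measured in live-treated cells via 6-hexadecanoylamino-4-methylumbelliferyl-β-galactoside hydrolysis (0.1 mM final, pH 5.2) with fluorescent detection.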
# Sequence of UniProt P54803 (P54803 whole entry, looked up): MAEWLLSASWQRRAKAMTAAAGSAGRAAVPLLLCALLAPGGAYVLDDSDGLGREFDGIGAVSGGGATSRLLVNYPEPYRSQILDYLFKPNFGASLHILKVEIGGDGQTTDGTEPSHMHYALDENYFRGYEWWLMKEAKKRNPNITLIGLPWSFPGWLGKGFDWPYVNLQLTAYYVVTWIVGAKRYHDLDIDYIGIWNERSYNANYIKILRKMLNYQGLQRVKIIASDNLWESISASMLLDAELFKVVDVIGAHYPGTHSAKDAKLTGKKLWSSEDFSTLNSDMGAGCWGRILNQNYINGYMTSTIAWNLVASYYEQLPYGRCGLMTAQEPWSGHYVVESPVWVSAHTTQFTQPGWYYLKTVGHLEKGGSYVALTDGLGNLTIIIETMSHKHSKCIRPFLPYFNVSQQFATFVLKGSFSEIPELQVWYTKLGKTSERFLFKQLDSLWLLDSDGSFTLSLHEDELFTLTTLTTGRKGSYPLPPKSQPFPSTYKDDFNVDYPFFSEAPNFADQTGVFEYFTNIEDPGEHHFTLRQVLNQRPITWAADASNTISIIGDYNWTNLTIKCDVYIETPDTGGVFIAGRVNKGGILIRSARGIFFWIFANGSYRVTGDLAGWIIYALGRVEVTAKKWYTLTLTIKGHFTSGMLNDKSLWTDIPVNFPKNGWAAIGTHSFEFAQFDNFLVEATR
row,SMILES,activation
1,COc1cc(NCc2ccc3nc(N)nc(N)c3c2C)cc(OC)c1OC,inactive: -16.9%
2,CCOc1ccc(CNC(=O)Cn2c(=O)c3cccn3c3ccc(F)cc32)cc1OC,inactive: -1.02%
3,O=C(CCCCn1c(=O)c2ccccc2n(CC(=O)Nc2cccc(F)c2)c1=O)NCc1ccccc1Cl,inactive: -4.9%
4,COc1cc(/C=C/c2nc(C#N)c(NC(C)c3ccccc3)o2)cc(OC)c1OC (stereo not given),inactive: -1.36%
5,CCOC(=O)CCN(c1ccccc1)S(=O)(=O)c1ccc2[nH]c(=O)ccc2c1,inactive: -6.64%
6,O=C(c1ccc(Cl)cc1)n1nc(-c2ccco2)nc1NCc1cccs1,inactive: -1%
7,CCc1ccc(Oc2nc3c(C)cccn3c(=O)c2/C=C(\C#N)c2nc3ccccc3s2)cc1,inactive: -18%
8,Cc1ccc(CNC(=O)Cn2c(=O)n(-c3ccccc3)c(=O)c3c2c2cc(C)ccc2n3C)cc1,inactive: 2.48%
9,Cc1ccc(NC(=O)CCSc2nc(-c3ccc4c(c3)OCO4)cc(C(F)(F)F)n2)cc1,inactive: -14.8%
10,CCCCN(C)CCNC(=O)Cn1ncc2c([nH]c3ccccc32)c1=O,inactive: -10.3%
11,O=C(Cc1csc2nc(-c3ccccc3)cn12)NCc1ccc(F)cc1,inactive: -10.4%
12,O=C(NCC(c1cccs1)S(=O)(=O)c1cccs1)c1ccc(C(F)(F)F)cc1 (stereo not given),inactive: -2.08%
13,CCOc1ccccc1NC(=O)N1CCCn2nc(C)cc21,inactive: -14%
14,COc1cc(C(=O)NCc2ccc(OCCN(C)C)cc2)cc(OC)c1OC,inactive: -9.3%
15,COc1ccc(CCCc2nnc(SCC(=O)Nc3ccccc3F)o2)cc1C,inactive: -13.7%
16,Cc1ccc(-n2ncc3c(N(CCO)Cc4ccccc4)ncnc32)cc1,inactive: -9.26%
17,CCCN1CCCC[C@H]1C(=O)Nc1c(C)cccc1C,inactive: -18.3%
18,CCOCCCNC(=O)CN1C(=O)c2c(c3ccccc3n2C)C1c1ccc(OC)cc1 (stereo not given),inactive: -9.79%
19,COc1cccc(N(Cc2nnc3n2CCCCC3)C(=O)Nc2cccc(Cl)c2)c1,inactive: -6.64%
20,O=C(OCc1ccccc1Cl)c1ccc(-c2nnn(Cc3ccccc3Cl)n2)cc1,inactive: -27.3%
21,CCOC(=O)c1c(S(=O)(=O)N2CCCC(C(=O)Nc3ncccc3C)C2)c(C)n(C)c1C (stereo not given),inactive: -11%
22,COc1ccc(N(C(=O)COc2ccc(Br)cc2)S(=O)(=O)c2ccc(C)cc2)cc1,inactive: -17.4%
23,Cc1ccc(NC(=O)CCc2c(C)nn(-c3ccc(N4CCOCC4)nn3)c2C)cc1F,inactive: 11.5%
24,O=C(NC1CC(=O)N(c2ccc(F)cc2)C1)c1ccc(S(=O)(=O)N2CCCC2)cc1 (stereo not given),inactive: -10.8%
25,CCN(C(=O)CSc1nc2ccccc2nc1Cc1cccc(OC)c1)c1cccc(C)c1,inactive: -6.27%

row,SMILES,activation
1,Cc1ccc(Cn2c(C(=O)O)c(CNCCc3cccs3)c3ccc(C)cc32)cc1,inactive: -3.73%
2,O=C(COc1ccc(Cl)cc1)Nc1ccc(O)c(-c2nc3ccccc3s2)c1,inactive: -24%
3,Cc1ccc(NC(=O)Nc2nc3c(s2)CCCCCC3)cc1C,inactive: -13.6%
4,CN(C)c1ccc(C(CNC(=O)c2ccccc2Cl)N2CCc3ccccc32)cc1 (stereo not given),inactive: -17%
5,CC(C)NCC(O)COc1ccc(CCOCC2CC2)cc1 (stereo not given),inactive: -11.9%
6,CCCCOc1ccc(C(=O)NCCS(=O)(=O)N2CCN(c3ccccc3OC)CC2)cc1,inactive: -18.3%
7,COc1ccccc1NC(=O)c1ccc2[nH]c(C)cc(=O)c2c1,inactive: -17%
8,Cc1cc(Br)ccc1NC(=O)COc1cc(=O)n(C)c2ccccc12,inactive: 1.63%
9,Cc1nnc(N2CCC(C(=O)NCc3ccc(F)cc3)CC2)c2nn(-c3ccc(Cl)cc3)c(C)c12,inactive: -3.28%
10,CCN(CC)S(=O)(=O)c1ccc2nc(NC(=O)c3ccccc3OC)sc2c1,inactive: -33.1%
11,O=c1c2sc3ccccc3c2n(Cc2ccccc2F)c(=O)n1-c1ccccc1Cl,inactive: 0.0345%
12,COc1cccc(CNC(=O)CSc2nc3ccccc3nc2Cc2ccccc2)c1,inactive: -8.8%
13,COc1ccccc1N1CCN(c2ccc(=O)n(CC(=O)O)n2)CC1,inactive: -9.45%
14,CCOCC(=O)Nc1ccc(-c2cn3c(C)csc3n2)cc1,inactive: -12.7%
15,Cc1ccc2c(c1)cc(C(=O)NCc1ccc(F)cc1)n2C,inactive: -15.5%
16,COc1cccc(C2CC(=O)Nc3c2c(=O)[nH]c2ncnn32)c1OC (stereo not given),inactive: -16.9%
17,Cc1cccc2cc(CN(C(=O)c3cccc(Cl)c3)c3ccccc3)c(=O)[nH]c12,inactive: 2.03%
18,CCN(C(=O)CSc1nc(-c2ccccc2)no1)c1cccc(C)c1,inactive: -7.25%
19,CNC(=O)C1CCC(Cn2c(=O)c3sccc3n(CC(=O)N3CCCC3)c2=O)CC1 (stereo not given),inactive: 1.66%
20,COc1cccc(CNc2ncnc3c2nnn3C)c1,inactive: -6.85%
21,CCOc1ccc(C2C(C(N)=O)=C(C)Nc3nc(-c4ccc(OC)cc4)nn32)cc1 (stereo not given),inactive: -12%
22,O=C(C1CCN(S(=O)(=O)c2ccc(Br)s2)CC1)N1CCN(c2ccc(F)cc2)CC1,inactive: 0.0052%
23,COc1ccccc1C(=O)Nc1cccc(OCc2cc(=O)n3c4c(sc3n2)CCCC4)c1,inactive: -3.36%
24,COc1ccccc1Nc1nn2c(=O)c3ccc(C(=O)NC4CCC(C)CC4)cc3nc2s1 (stereo not given),inactive: -15%
25,CCc1nc(N)nc(N)c1-c1ccc(Cl)cc1,inactive: -15.5%
